# This is one part of the list.
# Test system: PfHDP1 homeodomain (GST-tagged)
# Assay: gcPBM binding intensity (ln(normalized median fluorescence intensity)); higher = stronger DNA binding
# Outline: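 GST-tagged P. falciparum DNA-binding domains produced in E. coli were incubated for 1 h on an Agilent 4 × 180k array of primer-extended double-stranded 36-bp intergenic genomic probes with negative controls. Binding intensity is the highest Masliner-normalised natural-log median intensity across replicate spots of either probe orientation, with bound protein detected by Alexa488 anti-GST antibody at 488 nm.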
row,Sequence,gcPBM binding intensity (ln)
1,ATATTTTTTTTTTCGTGTACGCATAAATATATCTAA [XGTACX_site3360],6.64
2,TAAAAAATAAATATATGTACATATTTATTTTTTTTT [XGTACX_site850],6.19
3,ATTGAATTCCAACTGGTGCACCAGTAAGATTGAAAA [GTGCAC_site9895],10.1
4,ATAAATAAGATATATACACACATATCTATACATATT [CACACA_site6369],6.56
5,ATTTAAGAAAAAAGTTGTACTTATTTATTTTTATTT [XGTACX_site5561],5.83
6,GGCTAAAAGGGGCACACACACAAAAAAAAAAAAAAA [CACACA_site3288],6.57
7,AATCCACTTTTTTATGTTATACAATATAAATTAAAT [XGTACX_negctrl_site446],6.71
8,ATATATTATTTCTAGTGTACATACCCATATATAATA [XGTACX_site8902],7.13
9,TATTGATTTATAAACACACACTCGAAGATGTTTAAC [CACACA_site4760],6.56
10,AAGAAAAAAGTTATTAGTACACATTATAATAAAAAG [XGTACX_site3527],6.66
11,AATACTAAAAAGTGTACACATACATAAAAAATTGCA [CACACA_site5620],7.24
12,CATTATGTTGTAAATACACACATACATATACATACA [CACACA_site8143],6.76
13,TATATATATGTAAATCGTACAAATTATATATATCAT [XGTACX_site2821],6.25
14,TATATCTCATAGTATACACACACACCCACCCACATA [CACACA_site8513],7.7
15,TAATTTTCTTTTTATCGTTTTTTTTTTTTTTTTTTT [XGTACX_negctrl_site432],6.62
16,GGGTTTTTTATTAATACATGCATGGAAACGCACTAT [TGCATGCA_site1000],8.29
17,AAATTCATAAAAATATTTTATAATTATATATAGAAT [TGCATGCA_negctrl_site343],6.34
18,ATATATATATAATTTGTACACACAAATATGCATATA [CACACA_site9136],8.57
19,AAGAAAAACAATGAGATAAAGAAGAGAAAATATGTC [TGCATGCA_negctrl_site415],6.88
20,ATAAATATGTAAAAAACATGCAAAAAATTAAAGACA [TGCATGCA_site912],7.22
21,TTATTAAATAAAATCATGCACACAATATATATTTTA [CACACA_site2496],8.65
22,GTTATTAAACAGAAAAGTACATATGTATATTAAAAT [XGTACX_site3724],6.8

row,Sequence,gcPBM binding intensity (ln)
1,TAAAAAAAAAGAAGCTGTACTAAAAAATTTATATTA [XGTACX_site7408],5.82
2,TTATTACATAACAATATACACACTATTGATTAAAGA [CACACA_site2933],6.56
3,GGAAACAAAAAATATATACACACTAAACATAAAAAA [CACACA_site20],6.86
4,TCATAGTAGAAACACACACACACACCCATATATATA [CACACA_site1737],6.88
5,AACGCACATATATTTATGTATATATATATATATATA [GTGCAC_negctrl_site478],9.22
6,ACATATATTTTTTTTTGTACATATAAATATATATAT [XGTACX_site6491],7.43
7,TATTTTTTTTTATTTTTTTTTATTTTGTTTTTTTAT [TGCATGCA_negctrl_site315],6.33
8,ATTAAAATATAAGTCACACATATATATATATATATA [CACACA_site6145],9.49
9,ATATATTTTCCTTCAAGTACACATATAAATGTGTAT [XGTACX_site6633],6.66
10,AAAAAAATAATCATCACACACGGAGAATGTCCAATA [CACACA_site5305],6.31
11,AACGTAAAACATATCTATCAAAATAAATCATTAATC [TGCATGCA_negctrl_site68],6.18
12,AATATAATAATATTTTGTACATATCCTATGTATGAG [XGTACX_site8601],6.5
13,CACGCACGCAGACACACACACACACGCACATATATA [CACACA_site6303],7.56
14,AATATGACGTAGTGGTGTACACACATGGTACCTTTA [XGTACX_site3147],7.36
15,TTATAAATATAATTTTGTACATATATATATATATAC [XGTACX_site5064],6.47
16,TTAGAACTATTTTATACATGCAGTTATTTAATACTT [TGCATGCA_site1039],6.18
17,TATAGAATAATCTATAAACACACAAACACAACAAAA [CACACA_site9374],6.95
18,AAAAGATAATTATGCACACACACACCCCCACCCAAC [CACACA_site2570],10.5
19,TTTTTTTTTACTGCATGTACTTGATGTAAATAAATT [XGTACX_site3045],6.3
20,AATGGAAATTTTTCTTGTACACATATATGACATGTT [XGTACX_site1691],6.78
21,CGTATGTGCGGACATGCATGCAATATACAAGAAAAA [TGCATGCA_site145],7.01
22,TGTAGCCTGGAGAAGAGTACATAGTATCTGGTAGCT [XGTACX_site4943],6.37

row,Sequence,gcPBM binding intensity (ln)
1,CTAAATAACTTAAGGTGTACGTTTCCAATAAAAAAA [XGTACX_site1742],6.36
2,ACATATAAAATGATGCGTACATATTTGATCATATAC [XGTACX_site153],6.59
3,TTTTTTTTTTGAAGTGCATGTTACGATGAAAAAAAA [TGCATGCA_site64],7.26
4,GTATATTAATAAACATGTACACAATTTATTTATATT [XGTACX_site1012],6.6
5,TTTTTTTTTAAATGTTGTACATTATATTTGTGTATA [XGTACX_site8354],6.35
6,TGTCTTGTAAATTATTGTACTATTTAAAGTATACAA [XGTACX_site7864],6.45
7,TTGTATATATTTATATGTACATATATTACTTTTGCT [XGTACX_site2449],6.34
8,AAAATACAAACAAGTGGTACTGTTTATAAATGGTTG [XGTACX_site1503],6.09
9,ATAATATAACAATACGCACACGTATACAAAAAAAAA [CACACA_site5703],7.05
10,TTTTAAAAAGATCATTAAAAAAAAAAAAAGAACAAA [CACACA_negctrl_site528],6.47
11,AAATAATGGTTAGCTACACACAAAGCATTTTTTGAA [CACACA_site1016],6.21
12,CCATATAAAATATAAAAACACACGTATATATACATA [CACACA_site1511],6.67
13,ATTCAATCTTTTAATACACACAATTTATTTCAAAAC [CACACA_site835],6.63
14,ACAAAATGTAGAAAATGTACAAAATTAACAAAAGAA [XGTACX_site5019],7.13
15,TGTACATATATATAGATATATATAGATATATATATA [CACACA_negctrl_site1678],8.32
16,TATCCTAACTTTAGATGTACACAAATAAAAAAAAAA [XGTACX_site4491],6.32
17,AAACAACATATATTAATATGTACATATATATAGATA [GTGCAC_negctrl_site229],6.58
18,TTTTTATTGTTATAGTTATAATATATTATTTGATTA [XGTACX_negctrl_site27],6.41
19,TTTTTTTTTTTTGTAACACACAATAATATAACATTA [CACACA_site3411],6.37
20,AATAATTGTTAAAGCTGTACAATACTTATATAAGAA [XGTACX_site5729],6.71
21,CACATATAAATATTAACACACATAATGAGTTATATA [CACACA_site7316],6.29
22,TTATTAAGTAAATCACATTTAATTTTTTTTTTTTTT [CACACA_negctrl_site1280],6.13

row,Sequence,gcPBM binding intensity (ln)
1,TTATACCATATTTATAGTACGTACAAATAAATCAAT [XGTACX_site4975],6.26
2,AAGAAAAAAAAAAAAAGTACATGCAATATGGATCTT [XGTACX_site3106],6.44
3,AATAATAAAGATCAATGTACATAATAAAAAAAAAAA [XGTACX_site2692],6.4
4,TATCATGGGTGTATTTCACACACGGATAATCATTTA [CACACA_site8211],6.05
5,AATGTTTATTAACATTGTACTTATAATATGTCACAA [XGTACX_site2974],6.11
6,ATATATACAACTAAAGAACACACATCATTGTTCATT [CACACA_site9224],6.59
7,AAACAATTTTTTAAAAGTACTTGAAAATTGTGAAAT [XGTACX_site2461],6.66
8,AATCATGCTCCGGAAAGTACATAAATAAATAAATAA [XGTACX_site1690],8.22
9,GAAAGGACAAGAATAGTGCACATGCAATGTTATTTT [GTGCAC_site9985],10
10,ACAAAATTTTTAAGAACACACAAAAATGTACTATCG [CACACA_site2550],6.22
11,CACATACACATACAAACACACATTATGTATATATAT [CACACA_site1599],6.97
12,AAAAAAAAAAAACATACACACATACATACATATATA [CACACA_site8222],6.5
13,CATTTACCCTTATTAACACACAAAATAAAATACGCT [CACACA_site7249],6.57
14,AAATAACAAAAGAAGGTGCTCATAAAAATTCATACA [GTGCAC_site9864],6.29
15,AAATTATAAAAAAAAAAAAAAAAAAAAAAAAAAAAA [XGTACX_negctrl_site501],6.2
16,ATACAATGATATATACATATATATATATATATATAT [TGCATGCA_negctrl_site359],9.38
17,AAAAAAAAAAAAAAAAAAAAAAAAAAAAAAAAAAAA [CACACA_negctrl_site204],7.55
18,AACAATAGTAAAAATACACACATTAAACTTCATTTC [CACACA_site2126],6.24
19,ATATATATATATCACGCACACACGAATTTTAAATAT [CACACA_site3131],8.95
20,AAAAAAATTACGCAAGTGCATATAATTTAACAAAAA,8.39
21,AATGGTAATCCACATACACACACACCGACACATATA [CACACA_site8876],6.83
22,AACATTTATATAAAAGAACACACATATAAAATATTA [CACACA_site9199],6.45
